# According to the supplement of paper PMC9446081:
# The campaign covered roughly 39,000 compounds. About 220 (0.56%) showed activity. Some of the results follow.
# System: Escherichia coli K-12 BW25113
# Experiment: relative growth (OD600 normalised to plate interquartile mean) (fraction); higher = less growth inhibition, active = 0.2 or less
# Conditions: 50 µM; LB; incubation time: overnight (16-24 h)
# 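Further: static incubation at 37 °C against the wild-type strain, values averaged over two biological replicates.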
row,SMILES,relative growth
1,C[C@@H]1CN([C@@H](C)CO)C(=O)c2cccc(N(C)C)c2O[C@@H]1CN(C)S(C)(=O)=O,inactive: 0.957
2,CC(C)(C)C(=O)C[C@@H](Nc1ccccc1)c1ccc(Cl)cc1,inactive: 1.03
3,C[C@@H]1CCCCO[C@H](CN(C)C(=O)CCC(F)(F)F)[C@H](C)CN([C@@H](C)CO)C(=O)c2cc(NC(=O)Nc3ccccc3)ccc2O1,inactive: 1.02
4,COCCNC(=O)C[C@@H]1CC[C@@H]2[C@H](COc3ccc(NS(=O)(=O)c4ccc(Cl)cc4)cc3C(=O)N2C)O1,inactive: 0.982
5,CNC(=O)C[C@@H]1CC[C@@H]2[C@H](COC[C@H](O)CN2C(=O)Nc2ccc3c(c2)OCO3)O1,inactive: 0.991
6,C[C@H]1CN([C@@H](C)CO)S(=O)(=O)c2ccc(C#CC3(O)CCCC3)cc2O[C@@H]1CN(C)C(=O)c1ccccc1,inactive: 0.983
7,O=C(C[C@H]1C[C@H]2c3cc(NC(=O)Nc4ccc(C(F)(F)F)cc4)ccc3O[C@H]2[C@@H](CO)O1)NC1CCCCC1,inactive: 1.01
8,O=C(C[C@H]1C[C@H]2c3cc(NC(=O)c4ccc5c(c4)OCO5)ccc3O[C@H]2[C@@H](CO)O1)NCc1ccc(Oc2ccccc2)cc1,inactive: 1
9,COc1cc(OC)cc(C(=O)N(Cc2ccco2)Cc2cc3ccc(SC)cc3nc2-c2cccc(OC)c2)c1,inactive: 1.04
10,O=C(N[C@@H]1CC[C@H](CC(=O)N2CCOCC2)O[C@H]1CO)c1ccc2c(c1)OCO2,inactive: 0.998
11,Cc1noc(C)c1NC(=O)Nc1ccc2c(c1)C(=O)N([C@H](C)CO)C[C@H](C)[C@@H](CN(C)C(=O)Nc1cccc3ccccc13)OCCCC[C@H](C)O2,inactive: 1.03
12,Cc1noc(C)c1S(=O)(=O)Nc1ccc2c(c1)CC(=O)N([C@H](C)CO)C[C@@H](C)[C@H](CN(C)Cc1ccncc1)O2,inactive: 0.995
13,C[C@H]1CN([C@@H](C)CO)C(=O)c2cc(C#Cc3ccccc3F)cnc2O[C@@H]1CN(C)C(=O)Cc1cccnc1,inactive: 0.987
14,C[C@@H]1CCCCO[C@H](CN(C)Cc2ccccc2)[C@@H](C)CN([C@H](C)CO)C(=O)c2cc(NC(=O)Nc3ccc(C(F)(F)F)cc3)ccc2O1,inactive: 1.01
15,C[C@@H]1CN([C@@H](C)CO)C(=O)Cc2cc(NS(=O)(=O)c3cn(C)cn3)ccc2O[C@@H]1CN(C)Cc1ccncc1,inactive: 0.996
16,C[C@H](CO)N1C[C@H](C)[C@H](CN(C)C(=O)c2ccccc2)OCCCC[C@H](C)Oc2ccc(NC(=O)Cc3ccccc3)cc2C1=O,inactive: 0.999
17,Cc1cc(C(=O)Nc2cccc3c2O[C@@H](CN(C)S(=O)(=O)c2cn(C)cn2)[C@@H](C)CN([C@@H](C)CO)C3=O)n(C)n1,inactive: 1.02
18,COc1ccc(S(=O)(=O)N(C)C[C@H]2Oc3ccc(NC(=O)Cc4ccccc4)cc3CC(=O)N([C@H](C)CO)C[C@H]2C)cc1,inactive: 1.03
19,COc1ccc(CN(C)C[C@H]2Oc3ccc(NC(=O)CCCN(C)C)cc3C(=O)N([C@H](C)CO)C[C@H]2C)cc1,inactive: 1
20,COc1ccc(-c2cc3c(c(CCc4ccccc4)n2)[Si](C(C)C)(C(C)C)O[C@H]3c2ccccc2)cn1,inactive: 1.01

row,SMILES,relative growth
1,Cc1ccc2nc(-c3ccncc3)cc(-c3ccccc3)c2c1,inactive: 1.01
2,Cc1ccc(S(=O)(=O)Nc2cccc3c2O[C@@H](CN(C)C(=O)Nc2cccc4ccccc24)[C@H](C)CN([C@H](C)CO)C3=O)cc1,inactive: 1.04
3,N[C@@H](C(=O)O)[C@@H](O)[C@H](O)[C@H](O)CO,inactive: 0.951
4,CC(C)NC(=O)Nc1cccc2c1O[C@H](CN(C)Cc1ccc3c(c1)OCO3)[C@@H](C)CN([C@@H](C)CO)C2=O,inactive: 1.01
5,CCN1CCN(CC(=O)Nc2ccc(-c3cccc4c(=O)cc(N5CCOCC5)oc34)c3sc4ccccc4c23)CC1,inactive: 0.981
6,C=CCOC(=O)[C@H]1[C@@H]2C(=O)O[C@@H](c3ccccc3)[C@@H](c3ccccc3)N2[C@@H](c2ccc(OCCOC(=O)[C@H]3C[C@H]4C(=O)N5CCC[C@H]5C(=O)N4[C@H]3c3cccc(OCCO)c3)cc2)[C@]12C(=O)Nc1ccccc12,inactive: 1.03
7,O=C(NO)c1cccnc1,inactive: 1.02
8,C[C@H]1CCCCO[C@H](CN(C)C(=O)Cc2ccccc2)[C@@H](C)CN([C@@H](C)CO)C(=O)c2cc(NC(=O)Cc3ccccc3)ccc2O1,inactive: 0.972
9,C/C(C[P+](c1ccccc1)(c1ccccc1)c1ccccc1)=N\NC(=O)CCCCCCC(=O)Nc1ccccc1O,inactive: 1.02
10,C[C@@H]1CN([C@@H](C)CO)C(=O)Cc2cc(NC(=O)CCN3CCOCC3)ccc2O[C@@H]1CN(C)Cc1ccccc1,inactive: 1.02
11,C[C@H]1CCCCO[C@H](CN(C)S(=O)(=O)c2ccccc2)[C@@H](C)CN([C@@H](C)CO)C(=O)c2cc(NC(=O)Nc3ccc(C(F)(F)F)cc3)ccc2O1,inactive: 1.02
12,CC(C)NC(=O)Nc1ccc2c(c1)C(=O)N([C@H](C)CO)C[C@H](C)[C@@H](CN(C)Cc1ccc(Cl)c(Cl)c1)OCCCC[C@H](C)O2,inactive: 1.03
13,O=C(C[C@@H]1CC[C@H]2[C@@H](COC[C@@H](O)CN2S(=O)(=O)c2cccc(F)c2)O1)NCCCN1CCOCC1,inactive: 0.981
14,C[C@@H]1CN([C@@H](C)CO)C(=O)c2cc(NC(=O)Nc3ccc4c(c3)OCO4)ccc2O[C@H]1CN(C)Cc1ccc(Oc2ccccc2)cc1,inactive: 1.01
15,O=C(C1=C[C@@H](c2ccc(C(F)(F)F)cc2)C[C@@H](OCc2ccc(CO)cc2)O1)N1CCN(Cc2ccccc2)CC1,inactive: 1.03
16,CCCCC[C@@H](C)N,inactive: 0.999
17,CC(C)NC(=O)Nc1ccc2c(c1)C(=O)N([C@@H](C)CO)C[C@H](C)[C@@H](CN(C)Cc1ccccc1)OCCCC[C@H](C)O2,inactive: 1.01
18,CC1=C(CC(=O)O)c2cc(F)ccc2C1=Cc1ccc(S(C)=O)cc1 (stereo not given),inactive: 1.05
19,C[C@H]1CCCCO[C@H](CN(C)S(=O)(=O)c2ccccc2)[C@@H](C)CN([C@@H](C)CO)C(=O)c2cc(NC(=O)Nc3cccc4ccccc34)ccc2O1,inactive: 1.03
20,O=[N+]([O-])c1cccc2c1nnn2[C@H](CO)OCCO,inactive: 0.98

row,SMILES,relative growth
1,COc1ccc(CN(C)C[C@H]2Oc3c(NC(=O)c4cnccn4)cccc3C(=O)N([C@H](C)CO)C[C@@H]2C)cc1,inactive: 0.998
2,C[C@@H]1CN([C@@H](C)CO)C(=O)c2cccc(NC(=O)C3CC3)c2O[C@@H]1CN(C)S(=O)(=O)c1cn(C)cn1,inactive: 1.02
3,Cc1ccc(S(=O)(=O)N(C)C[C@@H]2OCCCC[C@H](C)Oc3ccc(NC(=O)C4CCCCC4)cc3C(=O)N([C@@H](C)CO)C[C@H]2C)cc1,inactive: 1.05
4,Cc1noc(C)c1NC(=O)N(C)C[C@@H]1Oc2ccc(NS(=O)(=O)c3cn(C)cn3)cc2C(=O)N([C@H](C)CO)C[C@H]1C,inactive: 0.985
5,C[C@@H]1CN([C@@H](C)CO)C(=O)c2cc(NC(=O)C3CC3)ccc2O[C@H]1CN(C)Cc1ccc2c(c1)OCO2,inactive: 1.02
6,CC(C)(C)S(=O)N1Cc2cc(C(=O)NCc3ccc4c(c3)OCO4)nc(-c3cccc(C#CCC4CCCC4)c3)c2[C@H]1CCO (stereo not given in full),inactive: 1.04
7,Cc1ccc(S(=O)(=O)N2C[C@@H](O)COC[C@H]3O[C@H](CC(=O)NCc4ccc5c(c4)OCO5)CC[C@@H]32)cc1,inactive: 1
8,C[C@@H]1CN([C@@H](C)CO)C(=O)c2cc(-c3ccc(F)cc3)cnc2O[C@@H]1CN(C)C(=O)Cc1ccccn1,inactive: 0.977
9,COc1ccc(S(=O)(=O)N(C)C[C@H]2Oc3ccc(NS(=O)(=O)c4cn(C)cn4)cc3CC(=O)N([C@@H](C)CO)C[C@@H]2C)cc1,inactive: 0.998
10,C[C@H]1CN([C@@H](C)CO)C(=O)c2c(c3ccccc3n2C)-c2ccccc2CO[C@H]1CN(C)C(=O)Nc1cccc(C(F)(F)F)c1,inactive: 1.03
11,O=C(CCCCCCC(=O)Nc1ccc([C@H]2O[C@@H](CSc3ccccc3)C[C@H](c3ccccc3)O2)cc1)NO,inactive: 1.02
12,COc1ccc(S(=O)(=O)Nc2ccc3c(c2)C(=O)N([C@@H](C)CO)C[C@H](C)[C@H](CN(C)Cc2ccc4c(c2)OCO4)OCCCC[C@@H](C)O3)cc1,inactive: 0.998
13,FC(F)(F)Oc1ccccc1,inactive: 0.963
14,Cc1noc(C)c1NC(=O)N(C)C[C@H]1Oc2ccc(NS(=O)(=O)c3c(C)noc3C)cc2CC(=O)N([C@@H](C)CO)C[C@H]1C,inactive: 0.987
15,CNC[C@H]1Oc2ccc(NC(=O)Cn3cnnn3)cc2C(=O)N([C@@H](C)CO)C[C@@H]1C,inactive: 0.913
16,C[C@H](CO)N1C[C@H](C)[C@H](CN(C)Cc2ccc(C(F)(F)F)cc2)Oc2ccc(NC(=O)Cn3cnnn3)cc2CC1=O,inactive: 0.95
17,CCCC#Cc1ccc2c(c1)O[C@@H](CN(C)S(=O)(=O)c1cccc(OC)c1)[C@H](C)CN([C@@H](C)CO)S2(=O)=O,inactive: 1.04
18,CCS(=O)(=O)N1C[C@]2(CN(C2)C(=O)Nc2ccc3c(c2)OCO3)c2c(n(c3cc(ccc23)OC)C)[C@@H]1CO,inactive: 0.979
19,O=C(C[C@H]1CC[C@@H]2[C@H](COC[C@H](O)CN2C(=O)Nc2ccc(C(F)(F)F)cc2)O1)NCCc1ccncc1,inactive: 0.863
20,O=C(C[C@@H]1C=C[C@H](NC(=O)CN2CCOCC2)[C@@H](CO)O1)NC1CCC1,inactive: 0.993
